# Experimental data published in patent US20230093429A1 (NAVIGO PROTEINS, published 2023).
# Substitutions are numbered along the chain they refer to.
# T1: soluble part of fibroblast growth factor receptor 3 (sFGFR3) (human, UniProt P22607 24-375, biotinylated with Sulfo-NHS-Biotin where it was immobilized on the streptavidin chip (sites not given))
# T1 construct: also called soluble FGFR3; soluble form of FGFR3
# T1 sequence: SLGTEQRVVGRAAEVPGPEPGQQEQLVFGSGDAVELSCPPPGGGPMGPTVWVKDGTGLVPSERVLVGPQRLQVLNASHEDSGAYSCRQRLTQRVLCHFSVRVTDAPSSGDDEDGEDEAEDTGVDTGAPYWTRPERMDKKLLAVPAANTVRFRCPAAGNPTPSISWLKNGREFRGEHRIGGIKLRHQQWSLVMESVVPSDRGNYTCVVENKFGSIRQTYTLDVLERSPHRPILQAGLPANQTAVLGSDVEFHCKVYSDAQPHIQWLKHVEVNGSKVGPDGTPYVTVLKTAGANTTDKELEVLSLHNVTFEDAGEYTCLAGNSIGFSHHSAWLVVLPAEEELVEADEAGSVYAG
# B1: CID206146 (PAdelFc-SEQ3-PAdelFc-Cys) (designed binder)
# chain: IAAKFDEAQSAADSEILHLPNLTEEQRNAFRQSLSDDPSVSLEVLGEAQKLNDSQAPKIAAKFDYVQSMADAQILQLINLTEEQRNAFRQSLSDDPSVSMVVLYRADWLNEHQAPKIAAKFDEAQSAADSEILHLPNLTEEQRNAFRQSLSDDPSVSLEVLGEAQKLNDSQAPKC
# notes: Built from the printed domain order
# B2: CID206142 (PAdelFc-SEQ4-PAdelFc-Cys) (designed binder)
# chain: B1 chain with V66I, S68H, A72D, Q73Y, I78R
# notes: as for B1
# B3: CID206136 (PAdelFc-SEQ7-PAdelFc-Cys) (designed binder)
# chain: IAAKFDEAQSAADSEILHLPNLTEEQRNAFRQSLSDDPSVSLEVLGEAQKLNDSQAPKIAAKFDQIQAMADQYILHLMNLTEEQRNAFRQSLSDDPSVSMIVLYKADWLNDKQAPKIAAKFDEAQSAADSEILHLPNLTEEQRNAFRQSLSDDPSVSLEVLGEAQKLNDSQAPKC
# notes: as for B1
# B4: CID206137 (PAdelFc-SEQ6-PAdelFc-Cys) (designed binder)
# chain: B1 chain with Y65D, V66I, S68M, Q76I, I78Y, M100L, R105K, E111R
# notes: as for B1
# B5: CID206141 (PAdelFc-SEQ5-PAdelFc-Cys) (designed binder)
# chain: B3 chain with Q65Y, A68E, Q72K, Y73H, H76M, M78H, I101L, D107H, D111Q, K112S
# notes: as for B1
# B6: CID206113 (PAdelFc-SEQ9-PAdelFc-Cys) (designed binder)
# chain: IAAKFDEAQSAADSEILHLPNLTEEQRNAFRQSLSDDPSVSLEVLGEAQKLNDSQAPKNAASEDWAQFSAMYEIDHLPNLTMRQAIWFIHSLYHDPSVSKEVLGEAQKLNDSQAPKIAAKFDEAQSAADSEILHLPNLTEEQRNAFRQSLSDDPSVSLEVLGEAQKLNDSQAPKC
# notes: as for B1
# B7: CID206121 (PAdelFc-SEQ8-PAdelFc-Cys) (designed binder)
# chain: IAAKFDEAQSAADSEILHLPNLTEEQRNAFRQSLSDDPSVSLEVLGEAQKLNDSQAPKIAAKFDEAQSAADSEILHLPNLTEYHRIQHRYWLVWDPSVSQFTLRDAQALNDWQAPKIAAKFDEAQSAADSEILHLPNLTEEQRNAFRQSLSDDPSVSLEVLGEAQKLNDSQAPKC
# notes: as for B1
# B8: CID206078 (homotetramer of SEQ ID NO: 1 with C-terminal cysteine) (designed binder)
# chain: IAAKFDHKQSTADTIILELPNLTEEQRNAFRQSLSDDPSVSKEVLYEAIWLNWSQAPKIAAKFDHKQSTADTIILELPNLTEEQRNAFRQSLSDDPSVSKEVLYEAIWLNWSQAPKIAAKFDHKQSTADTIILELPNLTEEQRNAFRQSLSDDPSVSKEVLYEAIWLNWSQAPKIAAKFDHKQSTADTIILELPNLTEEQRNAFRQSLSDDPSVSKEVLYEAIWLNWSQAPKC
# B9: CID206079 (SEQ1-SEQ1-PAdelFc-PAdelFc-Cys) (designed binder)
# chain: IAAKFDHKQSTADTIILELPNLTEEQRNAFRQSLSDDPSVSKEVLYEAIWLNWSQAPKIAAKFDHKQSTADTIILELPNLTEEQRNAFRQSLSDDPSVSKEVLYEAIWLNWSQAPKIAAKFDEAQQAADYEILHLPNLTEEQRNAFRQSLRDDPSVSLEVLGEAQKLNDSQAPKIAAKFDEAQQAADYEILHLPNLTEEQRNAFRQSLRDDPSVSLEVLGEAQKLNDSQAPKC
# B10: CID206081 (SEQ1-SEQ2-PAdelFc-PAdelFc-Cys) (designed binder)
# chain: B9 chain with H65Q, K66H, T72E, E76K, P96T, K100R, I107L, W111A
# B11: CID206080 (PAdelFc-SEQ1-SEQ1-PAdelFc-Cys) (designed binder)
# chain: IAAKFDEAQQAADYEILHLPNLTEEQRNAFRQSLRDDPSVSLEVLGEAQKLNDSQAPKIAAKFDHKQSTADTIILELPNLTEEQRNAFRQSLSDDPSVSKEVLYEAIWLNWSQAPKIAAKFDHKQSTADTIILELPNLTEEQRNAFRQSLSDDPSVSKEVLYEAIWLNWSQAPKIAAKFDEAQQAADYEILHLPNLTEEQRNAFRQSLRDDPSVSLEVLGEAQKLNDSQAPKC
# B12: CID206082 (SEQ1-PAdelFc-SEQ2-PAdelFc-Cys) (designed binder)
# chain: IAAKFDHKQSTADTIILELPNLTEEQRNAFRQSLSDDPSVSKEVLYEAIWLNWSQAPKIAAKFDEAQQAADYEILHLPNLTEEQRNAFRQSLRDDPSVSLEVLGEAQKLNDSQAPKIAAKFDQHQSTADEIILKLPNLTEEQRNAFRQSLSDDTSVSREVLYEALWLNASQAPKIAAKFDEAQQAADYEILHLPNLTEEQRNAFRQSLRDDPSVSLEVLGEAQKLNDSQAPKC
# B13: CID206083 (SEQ2-PAdelFc-SEQ1-PAdelFc-Cys) (designed binder)
# chain: IAAKFDQHQSTADEIILKLPNLTEEQRNAFRQSLSDDTSVSREVLYEALWLNASQAPKIAAKFDEAQQAADYEILHLPNLTEEQRNAFRQSLRDDPSVSLEVLGEAQKLNDSQAPKIAAKFDHKQSTADTIILELPNLTEEQRNAFRQSLSDDPSVSKEVLYEAIWLNWSQAPKIAAKFDEAQQAADYEILHLPNLTEEQRNAFRQSLRDDPSVSLEVLGEAQKLNDSQAPKC
# B14: CID204783 (PAdelFc-SEQ2-PAdelFc-Cys) (designed binder)
# chain: IAAKFDEAQSAADSEILHLPNLTEEQRNAFRQSLSDDPSVSLEVLGEAQKLNDSQAPKIAAKFDQHQSTADEIILKLPNLTEEQRNAFRQSLSDDTSVSREVLYEALWLNASQAPKIAAKFDEAQSAADSEILHLPNLTEEQRNAFRQSLSDDPSVSLEVLGEAQKLNDSQAPKC
# notes: as for B1
# B15: CID204815 (PAdelFc-SEQ1-PAdelFc-Cys) (designed binder)
# chain: B14 chain with Q65H, H66K, E72T, K76E, T96P, R100K, L107I, A111W
# notes: as for B1
# Target: T1, soluble part of fibroblast growth …
# Experiment: SPR; fusion protein immobilized, sFGFR3 as analyte (FIG. 2B); binding protein CID206146 immobilized, sFGFR3 as analyte (FIG. 2B)
# From the text: (§1) sFGFR3 was biotinylated with Sulfo-NHS-Biotin standard reagent and purified via size exclusion chromatography (Superdex 200). 500-1500 RU sFGFR3 (ON-ligand) was immobilized by injection on a Streptavidin coated CM-5 sensor chip (GE Healthcare). Alternatively, 500-1500 RU sFGFR binding protein (ON-ligand) was immobilized on a CM-5 sensor chip (GE Healthcare). The chip was equilibrated with SPR running buffer.
# (§2) Upon binding, protein analyte was accumulated on the surface increasing the refractive index. This change in the refractive index was measured in real time and plotted as response or resonance units versus time. The analytes were applied to the chip in serial dilutions with a flow rate of 30 μl/min. The association was performed for 120 seconds and the dissociation for 360 seconds. After each run, the chip surface was regenerated with 30 μl regeneration buffer (10 mM Glycine) and equilibrated with running buffer.
# (§3) Binding studies were carried out by the use of the BIAcore 3000 (GE Healthcare); data evaluation was operated via the BIAevaluation 3.0 software, provided by the manufacturer, by the use of the Langmuir 1:1 model (RI=0). Evaluated dissociation constants (KD) were standardized against the immobilized protein and indicated. Shown is the change in refractive index measured in real time and plotted as response or resonance unit [RU] versus time [sec]. […]
row,Binder,Kd [nM]
1,B1,2.64

# Target: T1, soluble part of fibroblast growth …
# Experiment: SPR, BIAcore 3000, Langmuir 1:1 model; which partner was immobilized is not stated for this row
# From the text: as §1, §2
# (§4) Binding studies were carried out by the use of the BIAcore 3000 (GE Healthcare); data evaluation was operated via the BIAevaluation 3.0 software, provided by the manufacturer, by the use of the Langmuir 1:1 model (RI=0). Evaluated dissociation constants (KD) were standardized against the immobilized protein and indicated. Shown is the change in refractive index measured in real time and plotted as response or resonance unit [RU] versus time [sec]. Results are shown in FIG. 2 and in Table 3 and in Table 4. SEQ1 refers to sFGFR binding protein of SEQ ID NO: 1, SEQ2 refers to sFGFR binding protein of SEQ ID NO: 2, SEQ3 refers to sFGFR binding protein of SEQ ID NO: 3, etc. PAdelFc refers to the non-Ig-binding proteins of SEQ ID NO: 30, Cys=Cysteine.
row,Binder,Kd [nM]
1,B2,4.5
2,B3,6.3
3,B4,6.4
4,B5,4.6
5,B1,3.8
6,B6,15
7,B7,15.7

# Target: T1, soluble part of fibroblast growth …
# Experiment: as above
# Remark: another data set of the same source
# From the text: as §1, §2, §4
row,Binder,Kd [nM]
1,B8,56.4
2,B9,118
3,B10,80.2
4,B11,232
5,B12,12.8
6,B13,10
7,B14,239
8,B1,4.2

# Target: T1, soluble part of fibroblast growth …
# Experiment: SPR, BIAcore 3000, Langmuir 1:1 model; sFGFR3 immobilized, fusion protein as analyte (FIG. 2A)
# From the text: as §1, §2, §3
row,Binder,Kd [nM]
1,B15,75

# Target: T1, soluble part of fibroblast growth …
# Experiment: affinity chromatography breakthrough; 20 mg/ml ligand coupled to Praesto 85 epoxy activated resin, loaded with 1 mg/ml sFGFR3 at 6 min residence time
# Method: DBC 10%. The resin with immobilized ligand was equilibrated in 1×PBS, pH 7.3. The dynamic binding capacity (DBC) was determined by the mass of 1 mg/ml injected sFGFR3 in 1×PBS pH 7.3 at 10% breakthrough at 6 min residence time.
# 20 mg/ml sFGFR3 binding protein was coupled to the resin with immobilized sFGFR3 binding protein for 3 h at 35° C. in the presence of 175 mg/ml crystalline Na₂SO₄, pH 8.5. 1 mg/ml sFGFR3 was loaded at 6 min residence time.
row,Binder,Dynamic binding capacity 10% at 6 min residence time [mg/mL]
1,B8,10.1
2,B9,10.3
3,B11,8.3
4,B12,8.9
5,B13,9.4
6,B15,8.3
7,B1,11
